Here are results for 13 compounds from PubChem BioAssay (NCATS).

Values joined by “and” are separate entries in the source; they are usually repeats but may differ in a detail not shown here. Equal entries are not always repeated. The list shows a part of the results. Further columns of the screen follow, without active or inactive calls. For some assays here: Compounds called inactive in the main read-out are mostly missing here. For some assays here: Words in brackets tell the shape of the fitted curve; partial curves, single points and poor fits give uncertain potencies.

The nature of assay [1]: qHTS Assay for Lipid Storage Modulators (AID 1519). The following applies: Drosophila S3 cells, BODIPY lipid droplet/cell ratio, laser cytometry, cells loaded with oleic acid. In outline: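 Cells seeded at 5,000 per well were treated with compounds over a concentration series and loaded with oleic acid (400 uM, as added). Lipid droplet fluorescence (488 nm excitation, 500-530 nm channel) was read by laser-scanning cytometry and normalized to 20 uM Triacsin C.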
In general terms: In qHTS, concentration-response curves come from the screen itself.

A short description of assay [2]: qHTS drug screen for cell cycle checkpoint inhibitors in PARPi-resistant BRCA-mutant ovarian cancer cell lines. (AID 1963452). As to conditions: PEO1/OlaR viability, CellTiter-Glo luminescence, 96 h. In outline: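 PEO1, PEO4 and PEO1/OlaR ovarian cancer cells, 600 per well, exposed 96 h at 37C to a dilution series. Viability read by CellTiter-Glo luminescence, normalized to DMSO and empty wells; activity summarized as Z-AUC.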

Assay [3] in a line: qHTS for identification of novel therapeutic agents for treatment of microphthalmiaassociated transcription factor (MiT) renal cell carcinoma (RCC) (AID 1963991). As to conditions: CellTiter-Glo, 48 h; for z-score: stronger effect = lower value. The gist of the method: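 Three TFE3-fusion RCC lines (UOK109, UOK124, UOK145), 500 cells/well in complete medium, were treated with MIPE 4.0 compounds for 48 hours at 37 C. Viability was by CellTiter-Glo luminescence, normalized to DMSO (100%) and empty wells (0%); curves fitted over 11 concentrations.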

The nature of assay [4]: qHTS Assay for Modulators of Human Peripheral Myelin Protein 22 (PMP22) Expression/Activity (AID 1967). The following applies: Cell-based PMP22 reporter, dual-color luciferase ratio. In outline: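 Quantitative HTS in a mouse Schwann cell line expressing dual click beetle luciferases: Pmp22 promoter (green) and control EF-alpha promoter (red). After 24h treatment, corrected green/red signal ratio gave %Activity relative to untreated cells.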

A short description of assay [5]: qHTS Validation Assay to Find Inhibitors of Chronic Active B-Cell Receptor Signaling (AID 485345). As to conditions: ABC-DLBCL cells, chronic BCR signaling reporter; measured here: CBR control luciferase (viability counter). In outline: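 TMD8 ABC-DLBCL cells stably carrying doxycycline-inducible IkappaBalpha–green luciferase fusion plus unfused red luciferase; compounds 46 uM to 3 nM, 4 h at 37C with doxycycline. Corrected green/red luminescence ratio normalized to 10 uM MG-132 and basal cell wells; curves fitted.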

Assay [6] is described as follows: Nrf2 qHTS screen for inhibitors: Validation (AID 493153). As to conditions: A549 ARE-Fluc reporter, 18-24 h; AC50: CellTiter-Fluor fluorescence read, measured here: cytotoxicity CellTiter-Fluor AC50; viability change: measured here: cytotoxicity max response. In outline:
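Concentration-response on A549 ARE_Fluc reporter cells exposed 18-24 h at 37 C, 5% CO2. Cytotoxicity read first by CellTiter-Fluor fluorescence (Ex 405/Em 525), then Nrf2 inhibition by BugLite luminescence after 15 min.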

Assay [7] in a line: qHTS assay for small molecule antagonists of androgen receptor signaling (AID 588516). The following applies: AR-UAS-bla HEK293, beta-lactamase ratio, antagonist mode, 16 h. The gist of the method: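 Antagonist mode: inhibition of R1881-stimulated (10 nM final) bla reporter in GeneBLAzer AR HEK 293 cells, 16 h at 37C, compounds titrated. IC50 and efficacy from Hill-equation fits of 405/460–530 nm FRET ratios.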

A short description of assay [8]: qHTS assay for small molecule antagonists of peroxisome proliferator-activated receptor delta signaling (AID 588535).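 Also: cells co-treated with a PPAR-delta agonist as stimulator during compound exposure.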 As to conditions: HEK293T PPARd-UAS-bla, beta-lactamase FRET ratio, 18 h; 460 nm channel. In outline: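 Fluorescence from CCF4-loaded GeneBLAzer PPAR-delta-UAS-bla HEK293T cells (2 hrs RT loading) quantified reporter inhibition after an 18 hr, 37 C compound exposure across a titration.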

The nature of assay [9]: qHTS assay for small molecule antagonists of peroxisome proliferator-activated receptor gamma signaling (AID 588537). The following applies: HEK293 PPARg-UAS-bla, beta-lactamase ratio, antagonist mode; measured here: W460 blue channel. In outline: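 Fluorescence at 460 and 530 nm (405 nm excitation) reported beta-lactamase cleavage of CCF4 after 2 h room-temperature loading. HEK293 reporter cells in 1% charcoal/dextran-treated FBS had received compound and rosiglitazone for 16 h.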

The nature of assay [10]: qHTS assay for small molecule antagonists of vitamin D receptor signaling (AID 588541). As to conditions: HEK293T VDR-UAS-bla, beta-lactamase ratio, antagonist mode; measured here: W460 blue channel (cell viability).
Assay [11] can be described thus: qHTS assay for small molecule agonists of retinoid X receptor alpha signaling (AID 588544). As to conditions: HEK293T RXRa-UAS-bla, beta-lactamase reporter, 18 h; 530 nm emission.
A short description of assay [12]: S16 Schwann cell PMP22 intronic element beta-lactamase assay (AID 624044). Also: nearly all actives have a fitted effect of over 15% in size. The following applies: S16 rat Schwann cells, PMP22 element beta-lactamase FRET, 24 h; measured here: 460 nm blue channel. The gist of the method: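 Beta-lactamase reporter under a PMP22 intronic regulatory element in stable S16 rat Schwann cells; 24 h compound exposure. 460 nm blue signal normalized between DMSO (0%) and potassium clavulanate, with 535 nm FRET tracking viability; curves classed by r2 and response.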

Where [13] appears, read: measured here: cell count channel max response.
[14] abbreviates: measured here: cell number channel AC50.
Where [15] appears, read: measured here: lipid channel max response.
Where [16] appears, read: measured here: PEO1 parental viability.
The mark [17] stands for this setting: TFE3-RCC UOK109 viability, measured here: UOK109 Z-AUC.
Setting [18] is: TFE3-RCC viability, measured here: UOK124 Z-AUC.
[19] abbreviates: TFE3-RCC viability, measured here: UOK124 cell viability.
Setting [20] is: TFE3-RCC viability, measured here: UOK145 Z-AUC.
Setting [21] is: TFE3-RCC viability, measured here: UOK145 cell viability.
[22] abbreviates: measured here: lipid (BODIPY) channel AC50.
Where [23] appears, read: measured here: red reporter channel AC50, EF-alpha promoter control reporter in MSC80 mouse Schwann cells.
The mark [24] stands for this setting: measured here: green reporter channel AC50, mouse Pmp22 promoter in mouse Schwann cells.
Tags tell the direction and shape of the fitted curve.

By AC50 is commonly meant the concentration giving half of the maximal activity seen. On to `COc1cc2ncnc(Nc3cccc(Br)c3)c2cc1OC`, for which the max response in assay [1] (setting [13]) came out at 20%; in assay [1] (setting [15]), 32.1%. Besides, the AC50 is 1.12 µM [rising, full curve, poor fit] in [1] (setting [14]); 15.5 µM [falling, single point] in assay [2] (setting [16]); 0.00105 µM [falling, full curve, poor fit] in [3] (setting [19]); 3.72 µM [falling, partial curve] in [3] (setting [21]). Moreover, the results for the z-score in assay [3] (setting [17]), in assay [3] (setting [18]) and in assay [3] (setting [20]) were -3.3, -0.162 and -1.78, respectively.

For the compound `Cn1cnc2c1c(=O)[nH]c(=O)n2C`, the max response in [1] (setting [13]) amounted to 26.4%; in assay [1] (setting [15]) it was 45.7%. In addition, the half-maximal activity concentration (AC50) is 39.8 µM [rising, single point] in assay [1] (setting [22]); 84.9 µM [falling, single point] in assay [4] (setting [23]); 4.11 µM [rising, full curve] in assay [5]; 18.7 µM [falling, partial curve] in assay [3] (setting [19]); 26.4 µM [falling, partial curve] in assay [3] (setting [21]). Besides, the z-score in [3] (setting [17]) is 0.782; in assay [3] (setting [18]), -0.105; in [3] (setting [20]), 0.315.

In the case of `CN1C2CCC1CC(OC(c1ccccc1)c1ccccc1)C2` (stereo not given), the max response worked out at 21.1% in assay [1] (setting [13]) and 26.7% in assay [1] (setting [15]). Also, the AC50 in assay [1] (setting [22]) was 0.631 µM [rising, full curve, poor fit]; in assay [4] (setting [24]), 42.6 µM [falling, partial curve]; in [4] (setting [23]), 37.9 µM [falling, full curve].

With `COc1[nH]c2ccc(F)cc2c1C(=O)OCC1CCN(CCNS(C)(=O)=O)CC1`, the max response was -6.88% and -36.5% in [1] (setting [13]); 8.12% and -38.9% in assay [1] (setting [15]). The AC50 is 1.41 µM [falling, full curve, poor fit] in [1] (setting [22]) and 95.3 µM [falling, single point] in assay [4] (setting [23]).

On to `COc1nccc(-c2c(-c3ccc(F)cc3)ncn2C2CCC(O)CC2)n1` (stereo not given), for which the max response in [1] (setting [13]) worked out at 28.3%; in assay [1] (setting [15]), 31.2%. The AC50 in [1] (setting [22]) is 1.41 µM [rising, full curve, poor fit]; in assay [3] (setting [19]), 6.62 µM [falling, partial curve, poor fit]; in [3] (setting [21]), 20.9 µM [falling, partial curve, poor fit]. In addition, the values for the z-score in [3] (setting [17]), in assay [3] (setting [18]) and in assay [3] (setting [20]) were -0.0849, 0.527 and 0.635, respectively.

In the case of `Cn1c(=O)[nH]c2ncn(C)c2c1=O`, the max response stood at 38% in assay [1] (setting [13]) and 37.3% in [1] (setting [15]). Moreover, the AC50 in assay [1] (setting [14]) is 0.0447 µM [falling, partial curve, poor fit]; in assay [4] (setting [23]), 84.9 µM [falling, single point].

With `COc1ccc2c(c1)c(CC(=O)O)c(C)n2C(=O)c1ccc(Cl)cc1`, the max response in [1] (setting [13]) was 18.3% and 64.9%; in [1] (setting [15]), 24.8% and 68.8%; in assay [8] it was 160% and 377%; in assay [11], 100% and 110%. The AC50 in assay [1] (setting [14]) was 2.82 µM [rising, full curve, poor fit]; in [4] (setting [23]), 84.9 µM [falling, single point]; in [7] (measured here: W460 blue channel fit), 15.8 µM [rising, single point]; in assay [7] (measured here: W530 green channel, cytotoxicity/artifact), 3.16 µM [rising, full curve]; in assay [9], 44.7 µM [rising, single point]; in [10], 6.31 µM [rising, full curve]. For the same compound, the AC50 in assay [3] (setting [21]) was 14.8 µM [falling, partial curve]. Moreover, in assay [6], the viability change was -7.03%. Further, the z-score in assay [3] (setting [17]) is 0.855; in assay [3] (setting [18]), 0.307; in assay [3] (setting [20]), -0.309.

With `COc1ccc2cc3[n+](cc2c1OC)CCc1cc2c(cc1-3)OCO2`, the max response in [1] (setting [13]) is 11.4%; in [1] (setting [15]), 11.6%; in [8] it was 29%; in assay [11], 24%. The AC50 in assay [1] (setting [22]) is 0.0251 µM [rising, full curve, poor fit]; in [9], 44.7 µM [rising, single point]; in assay [12] it was 5.01 µM [falling, full curve, poor fit]; in assay [2] (setting [16]), 0.616 µM [falling, full curve]; in assay [2] (measured here: PEO4 viability), 8.71 µM [falling, partial curve]; in [3] (setting [19]), 16.6 µM [falling, partial curve, poor fit]. Also, the z-score in assay [3] (setting [17]) is 0.487; in [3] (setting [18]), 0.109; in assay [3] (setting [20]), -0.216.

For `O=c1[nH]c2cc(Cl)c(Cl)cc2[nH]c1=O`, the max response in assay [1] (setting [13]) came out at 20.1%; in [1] (setting [15]), 39.1%. Further, the AC50 is 28.2 µM [rising, single point] in assay [1] (setting [22]) and 12 µM [rising, partial curve, poor fit] in [4] (setting [23]).

Regarding `Cc1ccccc1C(OCCN(C)C)c1ccccc1` (stereo not given), the max response in assay [1] (setting [13]) was found to be 24.5%; in [1] (setting [15]), 37.7%. In addition, the AC50 is 39.8 µM [rising, single point] in assay [1] (setting [22]); 75.7 µM [falling, partial curve, poor fit] in assay [4] (setting [24]); 95.3 µM [falling, single point] in [4] (setting [23]). Besides, the z-score in [3] (setting [17]) amounted to 0.675; in [3] (setting [18]) it was 0.684; in assay [3] (setting [20]) it was 0.526.

Turning to `CNCCC(Oc1ccccc1OC)c1ccccc1` (stereo not given), the max response in assay [1] (setting [13]) is -13.8%; in assay [1] (setting [15]), -20.2%. Besides, the AC50 is 22.4 µM [falling, single point] in assay [1] (setting [14]); 67.5 µM [falling, partial curve] in assay [4] (setting [24]); 84.9 µM [falling, partial curve] in assay [4] (setting [23]).

Take `C[C@@]12C(=O)OC(=O)[C@]1(C)[C@H]1CC[C@@H]2O1`: the max response is -26.3% in [1] (setting [13]) and -42.9% in [1] (setting [15]). In addition, the AC50 in [1] (setting [22]) is 12.6 µM [falling, partial curve, poor fit]; in assay [12], 3.37 µM [falling, full curve]; in [2] (setting [16]), 6.92 µM [falling, partial curve]; in assay [2] (measured here: PEO4 viability), 4.9 µM [falling, partial curve].

Consider `NNc1nncc2ccccc12`, for which the max response is 3.18% and 21.8% and 82.3% in assay [1] (setting [13]); 2.61% and 38.1% and 85.5% in assay [1] (setting [15]). Moreover, the AC50 in assay [1] (setting [22]) was 355 nM [rising, full curve, poor fit] and 2.82 µM [rising, partial curve]; in assay [4] (setting [23]) it was 47.8 µM [falling, partial curve].
